Screen size: about 420,000 compounds; about 64,000 (15%) were called active. The inconclusive results got no clear call from the source; some entries with a clear call stand among them for comparison. Calls follow the shape of the dose curve; as a rule, active = well fitted inhibition curve with a large enough effect; inconclusive = small, poorly fitted or top-dose-only effect; inactive = flat fitted curve, though single readings scatter. Potencies of inconclusive entries are left out as doubtful fits.
assay: qHTS for Inhibitors of human tyrosyl-DNA phosphodiesterase 1 (TDP1): qHTS in cells in absence of CPT; details: DT40 Tdp1-/- hTDP1 cells, no CPT, ATP luminescence, 48 h; activity change, negative = growth inhibition: at 46.2 µM (top of the series); also: nearly all actives have a fitted effect of over 55% in size
In short: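 Cells were dispensed at 400 per well, compounds added by pin tool, plates incubated ≥48 hr at 37 °C, then CellTiter-Glo added for 30 min at room temperature before luminescence reading. Line: DT40 Tdp1-/- complemented with hTDP1; camptothecin omitted.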
% is scaled to controls: 0 for no effect and ±100 for the full control effect; potency is read from the fitted curve at half-maximal effect; tags tell the direction and shape of the fitted curve.

Row | Structure (SMILES) | Potency | activity change, negative = growth inhibition
1 | Cc1ccc(-c2nnc(CCC(=O)NCC3C4CC5CC(C4)CC3C5)o2)s1 (stereo unspecified) | inconclusive [inhibitor, single point] | 
2 | Cc1ccccc1-c1cc(-c2ccccc2O)on1 | inconclusive [inhibitor, single point] | 
3 | O=C(COC(=O)CCc1ccccc1)Nc1cc([N+](=O)[O-])ccc1F |  | inactive: 10.5%
4 | CCC(C)N(C(=O)CSc1nnc(-c2ccco2)n1C)C1CCS(=O)(=O)C1 (stereo unspecified) |  | inactive: -0.816%
5 | Cn1nc([N+](=O)[O-])nc1Sc1nnnn1-c1cccc(C(=O)O)c1 |  | inactive: 7.87%
6 | CCCCC(=O)NC1(C(F)(F)F)C(=O)N(CC(C)C)C2=C1C(=O)CC(C)(C)C2 (stereo unspecified) | inconclusive [inhibitor, single point] | 
7 | CC(=O)NCC1(c2ccccc2)CCN(CC2COc3ccccc3O2)CC1 (stereo unspecified) |  | inactive: 7.54%
8 | O=C(CS(=O)(=O)Cc1ccccc1)NCc1ccco1 |  | inactive: 0.246%
9 | O=C(Nc1cccc(S(=O)(=O)N2CCCC2)c1)c1ccc2c(c1)OCO2 | inconclusive [inhibitor, single point] | 
10 | Fc1cccc(Cc2c(-c3ccccc3)nc3c(Cl)cc(C(F)(F)F)cn23)c1 | inconclusive [inhibitor, single point] | 
11 | CCCC(=O)Nc1cc(-c2nn(C)c(=O)c3ccccc23)ccc1N1CCOCC1 |  | inactive: -3.74%
12 | O=C(Nc1nc(-c2ccc3c(c2)OCCO3)cs1)C1CC(=O)N(c2ccc3c(c2)OCCO3)C1 (stereo unspecified) | inconclusive [inhibitor, single point] | 
13 | CCOC(=O)C1CCN(C(=O)Cc2cccs2)CC1 | inconclusive [inhibitor, single point] | 
14 | COc1ccc(NC2CCN(C3CC(=O)N(c4ccc(F)c(Cl)c4)C3=O)CC2)cc1 (stereo unspecified) | inconclusive [inhibitor, partial curve] | 
15 | Cc1nc(-c2cccc(S(=O)(=O)N3CC(C)CC(C)C3)c2)cs1 (stereo unspecified) | active: 13 µM | 
16 | Cc1nc(N2CCN(c3ccccc3)CC2)nc2c1C(=O)CC(c1ccccc1)C2 (stereo unspecified) | inconclusive [inhibitor, single point] | 
17 | N#CC1=C(N)Oc2n[nH]c(-c3cccnc3)c2C1c1cc(F)ccc1F (stereo unspecified) | inconclusive [inhibitor, single point] | 
18 | COc1ccc(CCNC(=O)C(=O)NCC(c2ccco2)S(=O)(=O)c2ccc(C)cc2)cc1 (stereo unspecified) |  | inactive: -29%
19 | CCOc1ccccc1/C=C(/NC(=O)c1ccccc1)C(=O)N(CC)CC |  | inactive: 11.3%
20 | COc1ccc(N2C(=O)[C@H]3CCC=C[C@H]3[C@@H]2c2ccccc2Br)cc1 | inconclusive [inhibitor, single point] | 
21 | O=C(CCn1c(=O)c2cccn2c2cccnc21)N1CCN(c2cccc(C(F)(F)F)c2)CC1 | active: 9.2 µM | 
22 | CC(C)NC(=O)c1ccc(Cn2c(SCc3ccc(F)cc3)nc3cccnc32)cc1 |  | inactive: -28.8%
23 | O=C(CCN1CCOCC1)N1c2ccccc2Sc2ccc(Cl)cc21 | inconclusive [inhibitor, single point] | 

Row | Structure (SMILES) | Potency | activity change, negative = growth inhibition
24 | COc1ccc(NS(=O)(=O)c2ccc3nc(COc4cccc5ccccc45)[nH]c3c2)cc1 | active: 20.6 µM | 
25 | O=C1NC[C@H](CCCCN2C[C@H](Cc3ccccc3)N(CCc3ccccc3)C(=O)C2=O)N(CCc2ccc(O)cc2)C1=O |  | inactive: -11%
26 | CN=C1SC(CC(=O)Nc2ccc(C(C)=O)cc2)C(=O)N1C (stereo unspecified) | inconclusive [inhibitor, full curve, poor fit] | 
27 | CNC(=S)N/N=C/c1cc(Br)cc(Br)c1O | inconclusive [inhibitor, partial curve, poor fit] | 
28 | O=C(CCC(=O)Nc1ccccc1)N/N=C/c1ccccc1F |  | inactive: 0.37%
29 | CCOC(=O)c1sc(NC(=O)CN2C(=O)NC3(CC(C)CC(C)(C)C3)C2=O)cc1C (stereo unspecified) | active: 18.4 µM | 
30 | O=C1NCCc2onc(-c3ccc(Br)cc3)c21 | inconclusive [inhibitor, single point] | 
31 | CSc1nc(-c2ccccc2)c2cc(Cl)ccc2n1 | inconclusive [inhibitor, single point] | 
32 | CCOc1cc(/C=C(/C#N)c2ccc(F)cc2)ccc1OCc1ccc(C(=O)O)o1 | inconclusive [inhibitor, single point] | 
33 | C/C(=N/NC(=O)c1cc(C)[nH]n1)c1ccncc1 |  | inactive: -2.52%
34 | Cc1ccccc1CSCCNC(=O)CCSc1ccccc1 | inconclusive [inhibitor, partial curve] | 
35 | N#Cc1ccc(C(=O)Nc2nc3ccccc3[nH]2)cc1 | inconclusive [inhibitor, single point] | 
36 | CC(C)N(C(=O)[C@H]1C[C@H](CC(=O)NCCc2ccccn2)C(=O)N2CCc3c([nH]c4cc(-c5ccco5)ccc34)[C@]12C)C(C)C | inconclusive [inhibitor, single point] | 
37 | COc1cc(/C=C2\SC(=S)N(CCC(=O)Nc3ccccn3)C2=O)cc(OC)c1OC | inconclusive [inhibitor, partial curve, poor fit] | 
38 | COc1ccc(OC)c(/C=C/c2nc3ccccc3c(=O)n2-c2ccc(F)c(Cl)c2)c1 | inconclusive [inhibitor, single point] | 
39 | COCCN1C(=O)COc2ccccc2C1C(=O)Nc1ccc2c(c1)OCCO2 (stereo unspecified) |  | inactive: -20.6%
40 | CC(=O)c1cn(CC(=O)Nc2cccc(C)c2C)c2ccccc12 | active: 25.9 µM | 
41 | CC(=O)N/N=C/c1cc(C(C)(C)C)cc(/C=N/NC(C)=O)c1O | active: 25.9 µM | 
42 | Cn1c(=O)c2c(nc(Br)n2C/C=N/NC(N)=S)n(C)c1=O | inconclusive [inhibitor, single point] | 
43 | CCOC(=O)C1=NNC2(CC(=O)N(c3cccc(C)c3)C2=O)C1 (stereo unspecified) |  | inconclusive: -9.93% [inhibitor]
44 | CCOC(=O)c1[nH]cnc1C(=O)N1CCN(C(=O)OC(C)(C)C)CC1 |  | inactive: 2.03%
45 | O=C(CN1CCN(c2ccc(O)cc2)CC1)NC(=O)NCc1ccco1 |  | inactive: -23.6%
46 | CCOc1ccccc1CN(Cc1ccco1)S(=O)(=O)c1ccc(-n2cnnn2)c(OC)c1 | inconclusive [inhibitor, single point] | 

Source: PubChem BioAssay AID686978 (National Center for Advancing Translational Sciences (NCATS), 2013)
